Data on 54 compounds can be found in ChEMBL document CHEMBL4888484, “Replenishing the malaria drug discovery pipeline: Screening and hit evaluation of the MMV Hit Generation Library 1 (HGL1) against asexual blood stage Plasmodium falciparum ,using a nano luciferase reporter read-out” (2022).

In all, about 150,000 compounds went through this assay and about 540 (0.36%) showed an effect of 50% or more. The list shows a part of the results.

Usually % Inhibition stands for the change of the read-out against control, counted positive when it falls.

In this experiment the test system is Plasmodium falciparum. The experiment is described as follows: Primary screen in NF54 nanoGlo assay, in single point, at 2uM, 72h; a lower Z score goes with more inhibition. Type of experiment: functional, Erythrocyte. The note with it: timepoint 72 hour.
Regarding `O[C@@H]1C[C@H]2CN(c3ccnc4c(C(F)(F)F)cccc34)C[C@H]2C[C@@H]1O`, the “% Inhibition” value was -10% and the Z score stood at 1.78.
Taken in the same sequence, the figures for `O=C(NCc1cc(-c2ccccc2)n[nH]1)[C@@H]1CCC[C@H](O)C1` were -7% and 0.68.
`CCCS(=O)(=O)NCC1CCN(C(C)C)CC1`: the “% Inhibition” value is given as -1% and the Z score turned out to be 0.24.
Taken in the same sequence, the figures for `CCc1oc2ccccc2c1C(=O)N1CCC[C@H]1CO` were -15% and 2.3.
On the same counts, the results for `Cc1cnc(CCNC(=O)c2ccoc2)n1C(C)C` are -5% and 0.93.
On the same counts, the results for `O=C(c1nccc2ccccc12)N1CCc2cc(Br)ccc21` are -1% and 0.11.
Take `O=C(C[C@H]1CCCCO1)Nc1ncc(Oc2ccccc2)cn1`: the “% Inhibition” value is -5% and the Z score came to 1.08.
For the compound `Cc1nc[nH]c1-c1nccn1CCc1cccs1`, the “% Inhibition” value is given as -15% and the Z score was determined as 2.71.
On the same counts, the results for `Cc1cc(C(=O)N2Cc3cnn(CCO)c3C2)c2ccc(C)c(C)c2n1` are 8% and -1.61.
As to `CN1C(=O)[C@]2(NC(=O)c3ccccc3O2)c2ccccc21`, the “% Inhibition” value is reported as -11% and the Z score was 1.48.
On the same counts, the results for `Cc1cccc(-c2nsc3c(=O)n(CC(=O)Nc4ccc5c(c4)OCCO5)cnc23)c1` are -11% and 1.83.
On the same counts, the results for `O=C(NCc1cccc(F)c1)[C@H]1CCCN(c2nnc3ccc(Cl)cn23)C1` are -10% and 1.09.
Take `CCn1c(Cn2cnn(C)c2=O)nc2cc(S(=O)(=O)N(C)C)ccc21`: the “% Inhibition” value was -2% and the Z score is listed as 0.38.
On the same counts, the results for `CCn1nc(C)c2ccn(CC(=O)NCc3ccccn3)c(=O)c21` are -14% and 1.38.
`O=C(N[C@H]1CCN(Cc2ccccc2)C1)N1CCCCCC1`: the “% Inhibition” value is given as -2% and the Z score is listed as 0.32.
On the same counts, the results for `COc1cc(OC)cc(C(=O)Nc2cnc(N3CCCCC3)c(C)c2)c1` are 36% and -0.78.
On the same counts, the results for `CC(C)(C)c1ccc(CCC(=O)N2CCC[C@H](c3nnc4ccccn34)C2)cc1` are -3% and 0.61.
Taken in the same sequence, the figures for `O=C(c1cc(/C=C/C2CCCCC2)c[nH]1)N1CCOCC1` were 8% and -1.3.
Consider `Cn1nc(-c2nc(C3CCOCC3)no2)c2c1CN(C(=O)Cc1cccnc1)C2`, for which the “% Inhibition” value is reported as 6% and the Z score is reported as -0.93.
On the same counts, the results for `Cn1cc(CCCNC(=O)c2ccccc2C#N)cn1` are -13% and 2.43.
On the same counts, the results for `COCC(=O)Nc1cc(C(=O)NC2CCCCCC2)c2c(c1)ncn2Cc1ccc(F)cc1` are -4% and 0.75.
Taken in the same sequence, the figures for `O=C(c1cccs1)N1CCC[C@H](c2nnn[nH]2)C1` were 10% and -1.49.
For the compound `CC1CC(C)(C)CC2(C1)OCC(Cn1cncn1)O2` (stereo not drawn), the “% Inhibition” value is -10% and the Z score was 1.08.
Taken in the same sequence, the figures for `CC[C@@H](CNC(=O)C1(C)COC1)N1CCOCC1` were 1% and -0.22.
Consider `Cc1nc(-c2ccccc2)n(CN2CCOC(C)(C)C2)n1`, for which the “% Inhibition” value is -10% and the Z score turned out to be 1.84.
On the same counts, the results for `O=C(CC[C@H]1CCOC1)Nc1c(O)cc(Br)cc1Cl` are 3% and -0.66.
Taken in the same sequence, the figures for `Cc1cc(C2CCC2)nc(-c2ccccc2C#N)n1` were -10% and 1.93.
On the same counts, the results for `O=C(CCOC1CCOCC1)NCC1CN(C(=O)c2ccccc2)C2CCN1C2` (stereo not drawn) are 3% and -0.3.
As for `CCN(CC)C(=O)N1CC[C@H](CCOc2ccccc2)C1`, the “% Inhibition” value is recorded as -2% and the Z score was determined as 0.26.
Taken in the same sequence, the figures for `Cc1cc(O)ccc1C(=O)N1C[C@H]2CCC[C@@H](C1)N(C)C2` were -11% and 1.51.
On the same counts, the results for `COc1ccc(C(=O)N2CCN(c3c(C)n(-c4ccccc4)c(=O)n(C)c3=O)CC2)cc1` are -4% and 0.74.
On the same counts, the results for `Cc1cc(C(=O)Nc2ccc(Cl)cc2)n(CC(=O)Nc2ccc(F)cc2)n1` are -8% and 1.2.
In the case of `COC(=O)c1n[nH]c2ccc(NC(=O)c3ccccc3OCC(=O)Nc3ccccc3F)cc12`, the “% Inhibition” value came out at 0% and the Z score is on record as -0.02.
`Cc1cccc(NC(=O)CN(CC(=O)Nc2cccc(C)c2C)Cc2ccco2)c1C`: the “% Inhibition” value worked out at 13% and the Z score is on record as -2.25.
On the same counts, the results for `CCCc1nn(-c2cccc(F)c2)c(N2CCN(CC)CC2)c1CN(CCC)Cc1sccc1C` are -3% and 0.25.
As for `CC(C)(C)c1noc(OCc2cnns2)n1`, the “% Inhibition” value came to 1% and the Z score was -0.07.
On the same counts, the results for `Cc1ccccc1C(=O)N1CCC2(CC1)CCC(O)(CN1CCN(C)CC1)CC2` are -10% and 1.29.
Taken in the same sequence, the figures for `O=C(Cn1c(-c2nnco2)cc2ccccc21)NC1CCCC1` were 0% and -0.04.
Taken in the same sequence, the figures for `N[C@H]1CC[C@@H](n2cc(-c3ncnn3-c3ccc(F)cc3F)nn2)CC1` were 3% and -0.63.
`O=C(O)[C@@H]1Cc2nc[nH]c2CN1Cc1ccc2cccc(Cl)c2n1`: the “% Inhibition” value is on record as -4% and the Z score is on record as 0.69.
On the same counts, the results for `Cc1cc(C)cc(NC(=O)NC(C)(C)C)c1` are -1% and 0.18.
With `CCCN(Cc1cnn(C)c1)C(=O)NCc1csc(C(C)(C)C)n1`, the “% Inhibition” value is on record as -9% and the Z score is recorded as 1.3.
Taken in the same sequence, the figures for `COc1ccc(-c2c[nH]c([C@@H]3COCCN3C3CCC3)n2)cc1` were 10% and -1.12.
As to `COc1cccc(NC(=O)N2CCc3nc(N4CCN(C)CC4)nc(Oc4cccc(OC)c4)c3C2)c1`, the “% Inhibition” value is 4% and the Z score is -0.79.
On the same counts, the results for `Nc1ccc(N(c2ccccc2)c2ccc(N)cc2)cc1` are 0% and -0.03.
On the same counts, the results for `CN(Cc1ccc2c(c1)OCO2)C(=O)c1cc2c(s1)CCCCCC2` are -5% and 0.66.
Taken in the same sequence, the figures for `NC(=O)c1ccc(N2CCc3ccccc3CC2)nn1` were -14% and 1.6.
As to `COC1CCC(C)(CNC(=O)N2CCC[C@H](OC)CC2)CC1` (stereo partly drawn), the “% Inhibition” value stood at 7% and the Z score is listed as -1.33.
On the same counts, the results for `Cc1c(C)n(C[C@@H](O)CNC2CCCC2)c2c(Cl)cccc12` are 48% and -6.21.
On the same counts, the results for `CC(C)c1nnc(CN=C(N)N2CCC[C@H](C)C2)s1` are 2% and -0.32.
On the same counts, the results for `Cc1nnsc1CN(C)Cc1cc(Cl)ccc1OCC(=O)O` are -4% and 0.61.
Regarding `CCc1ccc(C(=O)Nc2nnc([C@H]3CC(=O)N(c4ccc(OC(F)(F)F)cc4)C3)o2)cc1`, the “% Inhibition” value is listed as -19% and the Z score came to 3.66.
For `CC1(C)[C@H](Cc2cc(-c3ccccc3)on2)C[C@@H]1NS(=O)(=O)c1ccccc1`, the “% Inhibition” value amounted to 3% and the Z score is -0.49.
`c1ccc([C@@H]2CN(c3ccc4nccnc4n3)CCO2)cc1`: the “% Inhibition” value amounted to 8% and the Z score is -0.73.
